From PubChem BioAssay AID1030 (National Center for Advancing Translational Sciences (NCATS), 2008)
Screen size: about 220,000 compounds; about 16,000 (7.3%) were called active. The inconclusive results got no clear call from the source; some entries with a clear call stand among them for comparison. Calls come from the whole dose curve; as a rule, active = well fitted inhibition curve with a large enough effect (not every such curve was filed as active); inconclusive = small, poorly fitted or top-dose-only effect, or another doubt; inactive = no such curve, though single readings can be large or run the other way. Potencies of inconclusive entries are left out as doubtful fits.

target: Aldehyde dehydrogenase 1A1 (Homo sapiens) (UniProt P00352); experiment: qHTS Assay for Inhibitors of Aldehyde Dehydrogenase 1 (ALDH1A1); details: Purified ALDH1A1, NADH fluorescence, propionaldehyde substrate; series mostly up to 75.3 µM; activity, negative = inhibition: at the top concentration;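 for activity, negative = inhibition: plate controls were no enzyme wells and a reference inhibitor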
Potency is the fitted concentration of half-maximal effect; tags give direction and shape of the fitted curve.

Chain of UniProt P00352 (P00352 whole entry, looked up): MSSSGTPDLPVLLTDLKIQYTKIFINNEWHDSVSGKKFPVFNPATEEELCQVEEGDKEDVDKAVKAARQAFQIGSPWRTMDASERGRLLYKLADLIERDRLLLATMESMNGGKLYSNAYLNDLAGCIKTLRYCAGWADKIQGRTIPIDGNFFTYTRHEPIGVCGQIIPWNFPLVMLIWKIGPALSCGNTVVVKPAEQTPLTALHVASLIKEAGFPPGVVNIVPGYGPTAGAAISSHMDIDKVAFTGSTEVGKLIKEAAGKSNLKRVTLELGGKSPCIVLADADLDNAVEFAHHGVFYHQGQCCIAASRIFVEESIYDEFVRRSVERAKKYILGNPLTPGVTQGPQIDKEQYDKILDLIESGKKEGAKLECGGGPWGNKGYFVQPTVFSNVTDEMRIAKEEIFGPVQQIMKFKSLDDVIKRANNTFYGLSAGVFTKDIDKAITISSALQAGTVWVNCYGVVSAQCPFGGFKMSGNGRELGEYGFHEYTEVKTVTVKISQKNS

Row | Structure (SMILES) | Potency | activity, negative = inhibition
1 | CC(C)CC(CC(C)C)=NNC(=O)c1ccc(CSc2nncn2C)cc1 | inconclusive [inhibitor, partial curve] | –
2 | CCN(CC)C(=O)Cn1cc(C(=O)C(=O)N2CC=C(c3ccccc3)CC2)c2ccccc21 | inconclusive [inhibitor, single point] | –
3 | CCn1ncc(NC(=S)NCCc2ccccc2)c1C(N)=O | inconclusive [inhibitor, single point] | –
4 | COc1ccc(O)c(C(=O)c2cnn(-c3ccccn3)c2)c1 | – | inactive: -3.19%
5 | COc1ccc(CCC(=O)N2c3ccccc3CC2C)cc1 (stereo unspecified) | inconclusive [inhibitor, single point] | –
6 | CC(C)(C)C(=O)NC(=S)Nc1ccccc1C(=O)Nc1ccccc1 | active: 25.1 µM | –
7 | Cc1nc(SCC(=O)Nc2ccccc2C(F)(F)F)c(C#N)c(C)c1CC(=O)c1ccc(Br)cc1 | – | inactive: -10.8%
8 | CN(Cc1ccccc1)c1oc(COc2ccccc2F)nc1C#N | inconclusive [inhibitor, single point] | –
9 | CCCCCCn1c(SCC(=O)c2ccccc2)nc2c1c(=O)[nH]c(=O)n2C | inconclusive [inhibitor, full curve] | –
10 | NC(=O)c1ccsc1NC(=O)CSc1nnc(Nc2ccccc2)s1 | – | inactive: -9.21%
11 | Cc1onc(-c2ccccc2)c1C(=O)N1CCN(S(=O)(=O)c2ccc3c(c2)OCCO3)CC1 | active: 3.16 µM | –
12 | O=C(Cn1nc2ccccc2n1)N/N=C/c1cc([N+](=O)[O-])ccc1O | inconclusive [inhibitor, single point] | –
13 | CCn1c(=O)c(C(=O)CN(C)Cc2cccc(OC)c2OC)c(N)n(Cc2ccccc2)c1=O | inconclusive [inhibitor, single point] | –
14 | Cc1noc(C)c1-c1nc(N2CCNCC2)c2ccccc2n1 | – | inactive: 5.61%
15 | COC(=O)c1ccc2c(c1)S(=O)(=O)NC(=NCCCN1CCOCC1)S2 | inconclusive [inhibitor, single point] | –
16 | COc1cccc(-c2nn3c(-c4ccco4)nnc3s2)c1 | active: 3.55 µM | –
17 | Cc1cnc(CNc2cc(-c3ccccc3CN(C)C)ncn2)cn1 | inconclusive [inhibitor, partial curve] | –
18 | Cn1cccc1C(=O)N1CCC2(CCCN(Cc3nccs3)C2)CC1 | – | inactive: -3.06%
19 | Cc1ccc2c(c1)N(CC(=O)N(Cc1ccccn1)Cc1ccco1)C(=O)C(C(C)C)O2 (stereo unspecified) | inconclusive [inhibitor, single point] | –
20 | COc1ccc(-c2nc3c(c4c2C[C@H](c2ccccc2)OC4)CN(C(=O)NCc2ccco2)CC3)c(C)c1 | active: 1.78 µM | –
21 | Cc1ccc(C(=O)CN2C(=O)c3ccccc3S2(=O)=O)cc1 | – | inactive: -5.66%
22 | Cc1cc2cc(C#N)c(N3CCN(S(C)(=O)=O)CC3)nc2cc1C | inconclusive [inhibitor, single point] | –
23 | CCOC(=O)COn1c(=O)c(-c2cc3ccccc3o2)[n+]([O-])c2ccccc21 | – | inactive: -6.85%
24 | O=C(NCc1ccco1)c1sc2cccc(F)c2c1Cl | active: 28.2 µM | –

Row | Structure (SMILES) | Potency | activity, negative = inhibition
25 | CC1CN(C(=O)c2cc([N+](=O)[O-])cc([N+](=O)[O-])c2)CC(C)O1 (stereo unspecified) | inconclusive [inhibitor, partial curve] | –
26 | O=CN(Cc1ccco1)C1(C(=O)NC2CCCCC2)CCCCC1 | active: 14.1 µM | –
27 | Cn1c(=O)c2c(nc(CN3CCN(c4ccc(F)cc4)CC3)n2CCN2CCOCC2)n(C)c1=O | inconclusive [inhibitor, single point] | –
28 | COc1cccc(C(=O)/C=C/Nc2ccc(S(=O)(=O)Nc3cccc(C(C)=O)c3)cc2)c1 | inconclusive [inhibitor, partial curve] | –
29 | CC(C)(C)C(=O)Nc1cc(S(=O)(=O)N2CCCCC2)ccc1N1CCCCC1 | – | inactive: -0.687%
30 | CCOc1ccc(NS(=O)(=O)c2ccc(NS(=O)(=O)c3ccc(SC)cc3)cc2)cc1 | inconclusive [inhibitor, single point] | –
31 | CCC(=O)Oc1ccc2c(C)c(Cl)c(=O)oc2c1 | inconclusive [inhibitor, partial curve] | –
32 | CCOC(=O)c1[nH]c(C)c(C(=O)NC2CCCCCC2)c1C | – | inactive: -3.09%
33 | O=C(Nc1ccc2nc(-c3ccccc3)[nH]c2c1)c1ccco1 | inconclusive [inhibitor, single point] | –
34 | CCN(CC)C(=O)CSc1nc2ccccc2c(=O)[nH]1 | inconclusive [inhibitor, single point] | –
35 | Cc1ccccc1NC(=S)C1=C(O)c2sccc2N(C)S1(=O)=O | inconclusive [inhibitor, single point] | –
36 | COc1cc(NC(=O)Cn2c(-c3cncs3)nc3ccccc32)cc(OC)c1OC | inconclusive [inhibitor, partial curve] | –
37 | CC(C(=O)N1CCCCC1)n1sc2ccccc2c1=O (stereo unspecified) | – | inactive: 3.14%
38 | Cc1ccsc1C1C2=C(CCCC2=O)Nc2ncnn21 (stereo unspecified) | inconclusive [inhibitor, single point] | –
39 | Cc1ccc(-n2c(N)c(-c3nc4ccccc4n3C)sc2=S)cc1 | active: 3.55 µM | –
40 | Cc1ccnc(NC(=O)CSc2cc(=O)n(C)c3ccccc23)c1 | inconclusive [inhibitor, partial curve] | –
41 | Cc1noc(C)c1-c1cc(NCc2cccs2)ncn1 | – | inactive: -4.72%
42 | CCCn1c2ccccc2c2nnc(SCC(=O)OC)nc21 | active: 14.1 µM | –
43 | Cc1c(CCOC(=O)C2C3CC4CC(C3)CC2C4)sc[n+]1CC(=O)c1ccc(Br)cc1 (stereo unspecified) | inconclusive [inhibitor, single point] | –
44 | COC(=O)CCCC1=CC2=CC(=O)C(C)(OC(=O)c3cccs3)C(=O)C2=CN1CCN1CCOCC1 (stereo unspecified) | – | inactive: 0.871% [at 13.5 µM]
45 | O=S(=O)(NC1CC2CCC1C2)c1ccc2c(c1)OCCO2 (stereo unspecified) | inconclusive [inhibitor, partial curve] | –
46 | COc1ccc(NC(=O)Cn2cc(S(=O)(=O)Cc3ccccc3)c3ccccc32)c(OC)c1 | inconclusive [inhibitor, single point] | –
47 | O=C(COc1ccccc1Cl)Nc1ccc(CN2CCCCC2)cc1 | inconclusive [inhibitor, single point] | –
48 | O=C(O)Cc1[nH]cnc1C(=O)O | – | inactive: 10.5% [at 13.5 µM]

Row | Structure (SMILES) | Potency | activity, negative = inhibition
49 | CS(=O)(=O)Nc1ccccc1C(=O)NCCSCc1ccccc1 | inconclusive [inhibitor, single point] | –
50 | CCCCC(CC)CNC(=O)CC1Nc2c3ccccc3nc(=S)n2C1=O (stereo unspecified) | – | inactive: 13.5%
51 | [Li+] | – | inactive: 5.02%
52 | COc1ccc(C2NC(=O)C(C#N)=C(S)N2c2ccccc2)cc1OC (stereo unspecified) | inconclusive [inhibitor, single point] | –
53 | Cc1ccc(S(=O)(=O)N2CCC(=O)N([C@H](COCc3cccc(C)c3)Cc3ccccc3)CC2)cc1 | inconclusive [inhibitor, partial curve] | –
54 | COC1C/C(=N\O)C2OC(c3ccccc3)OCC2O1 (stereo unspecified) | inconclusive [inhibitor, single point] | –
55 | Cc1cc(NC(=O)CSC2=Nc3ccccc3C3=NC(Cc4ccccc4)C(=O)N23)n[nH]1 (stereo unspecified) | inconclusive [inhibitor, single point] | –
56 | Cc1csc(NC(=O)CSc2nnc(NC(=O)COc3ccc(Cl)cc3)s2)n1 | inconclusive [inhibitor, single point] | –
57 | c1ccc2[nH]c(CSc3nc4ccccc4o3)nc2c1 | inconclusive [inhibitor, single point] | –
58 | COC(=O)[C@@]1(Cc2ccccc2)C=C[C@@H](C)N1C(C)=O | inconclusive [inhibitor, single point] | –
59 | COC(=O)c1c(N)sc(C(=O)N2CCOCC2)c1C | inconclusive [inhibitor, single point] | –
60 | CC1(C)Cc2nc3oc4c(N(CCO)Cc5ccccc5)ncnc4c3cc2CO1 | inconclusive [inhibitor, partial curve] | –
61 | O=C1CC(c2ccccc2)n2nc(NS(=O)(=O)c3ccccc3)nc2N1 (stereo unspecified) | inconclusive [inhibitor, single point] | –
62 | Cc1ccc(/C=N/NC(=O)CSCc2ccc(Cl)cc2)cc1 | – | inactive: -8.19%
63 | COc1cc2c(cc1OC)C(c1cc([N+](=O)[O-])ccc1O)NCC2 (stereo unspecified) | inconclusive [inhibitor, single point] | –
64 | Cc1nc(NCc2ccccc2)c2nc(-c3ccccc3)n(CCN3CCCCC3)c2n1 | inconclusive [inhibitor, partial curve] | –
65 | O=C(NCc1ccccc1)C1CCC(CNc2c(N3CCCCC3)c(=O)c2=O)CC1 (stereo unspecified) | – | inactive: 4.47%
66 | CN(C)c1cccc(NC(=O)CCc2ccccc2)c1 | inconclusive [inhibitor, single point] | –
67 | C[C@@H](C(=O)N1CCN(C(=O)OC(C)(C)C)CC1)n1cc(CCC(=O)O)nn1 | – | inactive: -1.52%
68 | Cc1ccc(S(=O)(=O)NC(C)C(c2cccs2)N2CCN(c3ccccc3)CC2)cc1 (stereo unspecified) | inconclusive [inhibitor, single point] | –
69 | C/C(=N\Nc1ccc(F)cc1F)c1ccccc1O | inconclusive [inhibitor, single point] | –
70 | COc1ccc(/C=N/NC(=O)c2cc(-c3ccccc3OC)nc3ccccc23)cc1COC(C)=O | inconclusive [inhibitor, single point] | –
71 | N#Cc1c(NC(=O)C2CCCO2)sc2c1CCCCCC2 (stereo unspecified) | active: 14.1 µM | –
